{"source": "PubChem BioAssay AID1347417", "about": "(National Center for Advancing Translational Sciences (NCATS), 2020)", "note": "The whole screen tested about 120,000 compounds, of which about 5,300 (4.4%) were called active. Inconclusive results, whose numbers are uncertain, are shown with a selection of clear calls. Calls follow the shape of the dose curve; as a rule, active = well fitted inhibition curve with a large enough effect; inconclusive = small, poorly fitted or top-dose-only effect; inactive = no such curve, though single readings can be large or run the other way. Potencies of inconclusive entries are doubtful fits and often do not repeat. Potency is read from the fitted curve at half-maximal effect; tags tell the direction and shape of the fitted curve.", "data": [{"assay": "qHTS Primary assay for Inhibitors of Plasmodium falciparum Dd2 growth in vitro; also: nearly all actives have a fitted effect of over 65% in size", "details": "P. falciparum Dd2 growth, SYBR Green, 72 h; series mostly up to 28.9 µM", "in_short": "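Infected erythrocytes (Dd2, 0.3% parasitemia, 2.5% hematocrit final) are added to compound in RPMI-1640/Albumax II medium, grown 72 h at 37C in low oxygen, then lysed with saponin/Triton-X containing SYBR Green and read by fluorescence.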", "values": [{"smiles": "CC(C)(C)c1cc(C[C@@H]2CC[C@H](O)[C@@H](CN(CC3CC3)CC3CC3)O2)no1", "Potency": "active: 4.47 µM"}, {"smiles": "COc1cc(-c2noc(CN3CCN(c4cccc(Cl)c4)CC3)n2)cc(OC)c1OC", "Potency": "inactive"}, {"smiles": "COc1cc(CNC(=O)c2ccc3c(c2)N(C(=O)c2ccc(F)cc2)CC3)cc(OC)c1", "Potency": "inactive"}, {"smiles": "O=C1NCCCCCCN(C(=O)C2CCC2)[C@H]2C[C@H](c3nc(-c4cccnc4)no3)C[C@@H]12", "Potency": "inconclusive: 0.112 µM [inhibitor, full curve]"}, {"smiles": "CCC(=O)N1CCc2c(C(=O)NCc3ccccc3F)cccc21", "Potency": "inconclusive: 8.91 µM [inhibitor, single point]"}, {"smiles": "O=C(c1cnccn1)N1CC(c2nnc(-c3ccncc3)o2)C2(CCOCC2)C1", "note": "(configuration not stated)", "Potency": "inconclusive: 3.98 µM [inhibitor, single point]"}, {"smiles": "CC(C)(C)c1ccc(C(=O)N2CCC3(CC2)N=C(c2ccccc2)NO3)cc1", "Potency": "inconclusive: 3.98 µM [inhibitor, single point]"}, {"smiles": "COc1cccc(C(=O)N2CCc3nc(C4CC4)nc(-c4ccc(Cl)cc4)c3C2)c1", "Potency": "inconclusive: 1.78 µM [inhibitor, full curve, poor fit]"}, {"smiles": "CCn1cnnc1CC1CCN(C(=O)c2cc(-c3ccc(C)c(C)c3)nc3ccccc23)CC1", "Potency": "inconclusive: 11.2 µM [inhibitor, single point]"}, {"smiles": "C=CCc1ccccc1OCCN(C)Cc1cc2ccc(F)cc2[nH]c1=O", "Potency": "inconclusive: 1.12 µM [inhibitor, partial curve, poor fit]"}, {"smiles": "Cc1ccc(NC(=O)C2CCCN2S(=O)(=O)c2ccc3nc(-c4ccccc4)[nH]c3c2)cc1F", "note": "(configuration not stated)", "Potency": "inconclusive: 17.8 µM [inhibitor, single point]"}, {"smiles": "CN1CC(=O)N(c2ccc([N+](=O)[O-])cc2)Cc2c1ncnc2N1CCC(N2CCOCC2)CC1", "Potency": "inconclusive: 20 µM [inhibitor, single point]"}, {"smiles": "CCn1c(CN(C)C)nnc1C1CCN(C(=O)c2cnn3ccccc23)CC1", "Potency": "inactive"}, {"smiles": "C[C@H](O)c1c(-c2ccc(Cl)cc2)noc1C(=O)N(C)C", "Potency": "inactive"}, {"smiles": "COc1ccc(S(=O)(=O)NCC(c2ccc(N(C)C)cc2)N2CCc3ccccc32)cc1", "note": "(configuration not stated)", "Potency": "inconclusive: 20 µM [inhibitor, partial curve, poor fit]"}, {"smiles": "O=C(c1ccco1)n1nc(-c2ccc(Cl)cc2)nc1NCc1ccccc1", "Potency": "inconclusive: 6.31 µM [inhibitor, partial curve, poor fit]"}, {"smiles": "CCc1ccc(NC(=O)Cn2c(=O)n(Cc3nc(-c4ccccc4)no3)c(=O)c3cc4c(cc32)OCO4)cc1", "Potency": "inconclusive: 15.8 µM [inhibitor, single point]"}, {"smiles": "O=C1CC(c2ccccc2)N(C(=O)CNC(=O)C2(c3ccccc3)CC2)CCCCCCN1", "note": "(configuration not stated)", "Potency": "inconclusive: 14.1 µM [inhibitor, single point]"}, {"smiles": "C#CCN(C)Cc1nc(C2(O)CCN(C(=O)c3ccccc3F)CC2)cs1", "Potency": "inactive"}, {"smiles": "CCCCC(=O)OC1=C(C(C)=O)N(Cc2ccccc2)S(=O)(=O)c2ccccc21", "Potency": "inactive"}, {"smiles": "C[S+](=O)([O-])N1CC2(CCCN2CC2CC2)Cc2ccccc21", "note": "(configuration not stated)", "Potency": "inconclusive: 8.91 µM [inhibitor, single point]"}, {"smiles": "CN1CCCN(C(=O)C2CCCO2)c2ccccc21", "note": "(configuration not stated)", "Potency": "inconclusive: 0.708 µM [inhibitor, full curve, poor fit]"}, {"smiles": "COc1ccc(CN(C)CC2[C@H]3CNC[C@@H]23)c2cccnc12", "note": "(some centres not stated)", "Potency": "inactive"}, {"smiles": "COc1ccc(C(=O)N2CC[C@H]3C(=O)NCCCCCCN(Cc4ccncc4)[C@@H]3C2)c(OC)n1", "Potency": "inconclusive: 17.8 µM [inhibitor, single point]"}, {"smiles": "Fc1ccccc1CN1CCC[C@H]1c1nc(-c2ccnc(N3CCOCC3)c2)no1", "Potency": "inconclusive: 0.501 µM [inhibitor, full curve, poor fit]"}, {"smiles": "CCC1Oc2ccc(NC(=O)c3ccc([N+](=O)[O-])cc3)cc2CN(C(C)CC)C1=O", "note": "(configuration not stated)", "Potency": "inconclusive: 3.98 µM [inhibitor, single point]"}, {"smiles": "Cc1ccn2c(Nc3ccc(F)cc3)c(-c3ccccn3)nc2c1", "Potency": "active: 4.47 µM"}, {"smiles": "Cc1cccc(OC[C@H]2C[C@@H](NC(=O)Nc3ccccc3)[C@H](O)[C@@H]2O)n1", "Potency": "inactive"}, {"smiles": "Cc1noc([C@@H]2CN(C(=O)CCC(C)C)C[C@H]2CO)n1", "Potency": "inactive"}, {"smiles": "COc1ccccc1-c1cc(-c2cccnc2)c2cncn2c1", "Potency": "inconclusive: 2.24 µM [inhibitor, partial curve, poor fit]"}, {"smiles": "CCC1CN(C(=O)C2CCN(S(=O)(=O)c3c(C)noc3/C=C/c3ccccc3F)CC2)c2cc(Cl)ccc2O1", "note": "(configuration not stated)", "Potency": "inconclusive: 17.8 µM [inhibitor, single point]"}, {"smiles": "CCOC(=O)Cn1nc(-c2ccccc2)c2cnc3ccc(OCC)cc3c21", "Potency": "inconclusive: 17.8 µM [inhibitor, single point]"}, {"smiles": "O=C1CCN(Cc2ccncc2)CCCC(C(=O)Nc2cccc(F)c2)CCN1", "note": "(configuration not stated)", "Potency": "inconclusive: 12.6 µM [inhibitor, single point]"}, {"smiles": "O=C(CCn1ccc2ccc(Cl)cc21)Nc1ccc2c(c1)C(=O)N1CCC[C@H]1C(=O)N2", "Potency": "inconclusive: 10 µM [inhibitor, single point]"}, {"smiles": "CCc1ncc(C(=O)N2CCC(c3cc(Cc4ccccc4)[nH]n3)CC2)cn1", "Potency": "inactive"}, {"smiles": "COc1ccc(CC(=O)NC2CCCN(c3cc(-c4ccc(F)cc4)[nH]n3)C2)cc1OC", "note": "(configuration not stated)", "Potency": "inactive"}, {"smiles": "O=C(Cc1ccsc1)N1CCCN(c2cc(-c3ccc(Cl)cc3)[nH]n2)CC1", "Potency": "inconclusive: 8.91 µM [inhibitor, partial curve, poor fit]"}, {"smiles": "Cc1ccc(-c2nc3ccccc3s2)cc1NC(=O)COc1ccccc1", "Potency": "inactive"}, {"smiles": "Cc1ccc(OCC(=O)NCC2(N3CCOCC3)CCCCC2)cc1C", "Potency": "inconclusive: 7.08 µM [inhibitor, partial curve, poor fit]"}, {"smiles": "O=C(CCC1CCN(S(=O)(=O)c2ccccc2)CC1)NCc1ccc(F)cc1", "Potency": "inconclusive: 0.398 µM [inhibitor, full curve, poor fit]"}, {"smiles": "O=C(C1CCN(c2ncnc3c2nc2n3CCCCC2)CC1)N1CCN(c2ccc(F)cc2)CC1", "Potency": "inactive"}, {"smiles": "Cc1nccn1-c1ccc(NC(=O)C2CCCN(c3ncccc3C#N)C2)cc1", "note": "(configuration not stated)", "Potency": "inactive"}, {"smiles": "CN(C)Cc1cc(C[C@@H]2C[C@H](NC(=O)Nc3ccccc3)C2(C)C)no1", "Potency": "inconclusive: 22.4 µM [inhibitor, single point]"}, {"smiles": "CC[C@H]1CN(C(=O)Nc2cccc(C(F)(F)F)c2)CC[C@H]1CC(=O)N[C@@H](CO)CC(C)C", "Potency": "inactive"}, {"smiles": "Cc1ccc(-c2cn3c(n2)CO[C@@H](CNC2CCCC2)C3)cc1", "Potency": "inconclusive: 12.6 µM [inhibitor, partial curve, poor fit]"}, {"smiles": "COc1cccc(-c2ccccc2NC(=O)C2CCN(Cc3cc(F)ccc3F)CC2)c1", "Potency": "inactive"}, {"smiles": "CCOc1ccccc1CN1CCCCCCNC(=O)[C@@H]2CCC[C@@H]21", "Potency": "active: 2.82 µM"}, {"smiles": "COC1(c2ccccc2)CCN(C(=O)C2CCCN(C(=O)N(C)C)C2)CC1", "note": "(configuration not stated)", "Potency": "inactive"}, {"smiles": "CCc1ccc(NC(=O)CSC2=Nc3ccccc3C3=NC(CC(=O)NC4CCCCC4)C(=O)N23)cc1", "note": "(configuration not stated)", "Potency": "inactive"}, {"smiles": "Cc1ccc2c(=O)cc(C(=O)Nc3ccc(S(=O)(=O)Nc4nc(C)cc(C)n4)cc3)oc2c1", "Potency": "inconclusive: 0.0631 µM [inhibitor, partial curve, poor fit]"}, {"smiles": "COCC1CN(C2CCC2)CC12CCN(C(=O)c1ccc(F)c(F)c1)CC2", "note": "(configuration not stated)", "Potency": "inconclusive: 10 µM [inhibitor, partial curve, poor fit]"}, {"smiles": "COc1ccc(-c2nn(-c3ccccc3)cc2CN2CCN3CCCC3C2)c(F)c1", "note": "(configuration not stated)", "Potency": "active: 7.08 µM"}, {"smiles": "COc1ccc(C(=O)N2CCC3(CC2)NC(=O)N(Cc2ccc(C)cc2)C3=O)cc1OC", "Potency": "inconclusive: 11.2 µM [inhibitor, partial curve]"}, {"smiles": "CCc1ccc(S(=O)(=O)c2nnn(-c3ccc(F)cc3)c2N)cc1", "Potency": "inconclusive: 12.6 µM [inhibitor, single point]"}, {"smiles": "Cc1nnnn1-c1cccc(-c2nc(C3CCOC3)no2)c1", "note": "(configuration not stated)", "Potency": "inactive"}, {"smiles": "COc1ccc(N2CC(C(=O)N3CCC(C(=O)NCc4cccs4)C3)NC2=O)cc1", "note": "(configuration not stated)", "Potency": "inactive"}, {"smiles": "Cc1ccc(-n2c(C3CCN(C(=O)Cc4ccccc4F)CC3)n[nH]c2=O)cc1", "Potency": "inconclusive: 12.6 µM [inhibitor, single point]"}, {"smiles": "C=CCOc1cccc(-c2nc(C(=O)Nc3ccccc3)cs2)c1", "Potency": "inconclusive: 11.2 µM [inhibitor, single point]"}, {"smiles": "Cn1nccc1C(=O)N1CCc2ccc(NC(=O)C3(c4ccccc4)CC3)cc2C1", "Potency": "inactive"}, {"smiles": "Cc1cccc(OCC(=O)NCC2(N3CCN(C)CC3)CCCCC2)c1C", "Potency": "inconclusive: 0.398 µM [inhibitor, full curve, poor fit]"}, {"smiles": "C[C@H]1[C@@H]2[C@@H](O)C([C@H](C)C(=O)N3CCc4ccccc4C3)CC[C@@]2(C)CC[C@@H]1NC(=O)c1cnccn1", "note": "(some centres not stated)", "Potency": "inconclusive: 10 µM [inhibitor, single point]"}, {"smiles": "CC(C)Oc1cccc(-c2nnc(CCC(=O)NC3CCCCC3)c(=O)[nH]2)c1", "Potency": "inactive"}, {"smiles": "CN1C(=O)c2cccn2CC1CNC(=O)c1ccccc1", "note": "(configuration not stated)", "Potency": "inactive"}, {"smiles": "CCCNC1(Cc2cc(C(=O)N3CCCCC3)on2)COC1", "Potency": "inactive"}, {"smiles": "COC(=O)C1CCN([C@H]2[C@@H]3OC[C@@H](O3)[C@@H](NC(=O)Nc3cccc(OC)c3)[C@@H]2O)CC1", "Potency": "inactive"}, {"smiles": "N#Cc1ccc(-c2nc(C(=O)NC3CCCCC3)no2)cc1", "Potency": "inconclusive: 7.94 µM [inhibitor, single point]"}, {"smiles": "CCc1ccc(NC(=O)C2CCCN(S(=O)(=O)c3ccc4c(c3)CCCN4C(C)=O)C2)cc1", "note": "(configuration not stated)", "Potency": "inconclusive: 12.6 µM [inhibitor, single point]"}]}]}
